Data as given in PubChem BioAssay AID485364 (National Center for Advancing Translational Sciences (NCATS), 2010).
Hit rate of the full screen: of about 360,000 compounds, about 11,000 (3.1%) were called active. This list was built around the results that the source calls inconclusive (neither active nor inactive); the mix of calls is not that of the screen. Calls follow the shape of the dose curve; as a rule, active = well fitted inhibition curve with a large enough effect; inconclusive = small, poorly fitted or top-dose-only effect; inactive = no such curve, though single readings can be large or run the other way. Potencies of inconclusive entries are left out as doubtful fits.

Target: Schistosoma mansoni thioredoxin glutathione reductase (TGR) (UniProt Q962Y6)
Test: qHTS Assay for the Inhibitors of Schistosoma Mansoni Peroxiredoxins; also: nearly all actives have a fitted effect of over 60% in size
Details: purified TGR, DTNB reduction, TNB absorbance 405 nm; activity change, negative = inhibition: at 114 µM (top of the series) unless noted
Summary of the method: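 First, TGR (20 nM dispensed) and NADPH were mixed with compound. Second, a 15 min room-temperature incubation followed. Third, further NADPH and then DTNB were added to start the reaction. Finally, TNB absorbance was monitored kinetically.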
% is scaled to controls: 0 for no effect and ±100 for the full control effect; potency is read from the fitted curve at half-maximal effect; tags tell the direction and shape of the fitted curve.

SMILES	activity change, negative = inhibition	Potency
CC(=O)N1CCc2c(sc3c2c(=O)n(Cc2ccccc2)c(=O)n3CC(=O)Nc2ccc(C)c(F)c2)C1	inactive: -10.1%	
Cc1ccc(Cn2nc(C)c(NC(=O)c3cc(-c4ccco4)on3)c2C)cc1		inconclusive [inhibitor, partial curve, poor fit]
CC1CCCN(C(=O)c2nn(C)c3c2CSc2ccccc2-3)C1 (stereo not given)		inconclusive [inhibitor, partial curve]
COc1ccc(OC)c(NC(=S)N2CCN(C/C=C/c3ccccc3)CC2)c1		inconclusive [inhibitor, single point]
CCn1nnc(NC(=O)c2ccc([N+](=O)[O-])o2)n1		inconclusive [inhibitor, full curve]
COc1ccc(C(C)=O)cc1COc1ccc([N+](=O)[O-])c(C)c1		inconclusive [inhibitor, full curve, poor fit]
CCC(C)NC(=O)c1ccc(CS(=O)(=O)c2ccc(OC)cc2)o1 (stereo not given)		inconclusive [inhibitor, partial curve]
Cc1cnc(NC(=O)CCc2ccccc2)s1	inactive: -28%	
Cc1ccc(S(=O)(=O)N2CCC(C(=O)NC3CC3)CC2)cc1	inactive: 7.49%	
COc1cc(C(=O)Nc2nccs2)c(Br)c(OC)c1OC	inactive: 1.06%	
O=C(O)c1ccc(N2C(=O)CC(N3CCN(c4cccc(Cl)c4)CC3)C2=O)cc1 (stereo not given)		active: 50.1 µM
COc1ccc(/C=N/c2oc(-c3ccccc3)cc2C#N)cc1OC		inconclusive [inhibitor, full curve]
CN1C(=O)/C(=C/c2cccc([N+](=O)[O-])c2)C(=O)N1c1ccccc1		active: 25.1 µM
CCOc1ccc(CCNC(=O)CN(C)S(=O)(=O)c2ccc3c(c2)CCC(=O)N3)cc1OCC		inconclusive [inhibitor, single point]
Cc1cccc(N2C(=O)NC(=O)/C(=C\C=C\c3ccco3)C2=O)c1		inconclusive [inhibitor, full curve]
COc1ccc(-n2c(C)ccc2C)c([N+](=O)[O-])c1		inconclusive [inhibitor, partial curve]
CCOC(=O)Nc1c(Cl)n(C)c(=O)n(C)c1=O		inconclusive [inhibitor, partial curve]
Cc1ccc(-n2nc(C)c3c(C)cc(=O)n(CC(=O)NC(C)C)c32)cc1	inactive: -0.886%	
Cc1ccc(/C=C/C(=O)OCC(=O)NCCN2C(=O)CSC2=O)o1		active: 25.1 µM
O=C(COC(=O)COc1ccccc1)Nc1ncc([N+](=O)[O-])s1		inconclusive [inhibitor, partial curve]
CCCc1c(C(=O)NNc2cc(C(F)(F)F)ccc2Cl)cnn1-c1ccccc1		inconclusive [inhibitor, single point]
O=C1C2C3C=CC(C3=C3CCCCC3)C2C(=O)N1c1ccccc1 (stereo not given)		active: 15.8 µM
O=C(CN1CCCCCCC1)N/N=C/c1ccc([N+](=O)[O-])o1		active: 14.1 µM
CC(=O)Nc1ccc2nc(CN3CCC(CO)(CCc4ccccc4)CC3)ccc2c1		inconclusive [inhibitor, single point]

SMILES	activity change, negative = inhibition	Potency
CN(Cc1ccccc1)C(=C(Cl)Cl)C(=C1NCCN1)[N+](=O)[O-]		active: 35.5 µM
O=C(N/N=C/c1ccco1)C1CC1c1ccccc1 (stereo not given)		inconclusive [inhibitor, partial curve]
Clc1ccc(N2CCN(Cc3nnc(-c4ccc5c(c4)OCO5)o3)CC2)cc1		inconclusive [inhibitor, single point]
N#Cc1c(N)n(-c2cccc(O)c2)c2nc3ccccc3nc12		inconclusive [inhibitor, partial curve]
CC(NC(=O)COC(=O)/C=C/c1ccc2c(c1)OCO2)c1ccccc1 (stereo not given)	inactive: -17.7%	
COc1ccc(N(CC(=O)Nc2cccc(N(C)S(C)(=O)=O)c2)S(=O)(=O)c2ccccc2)cc1Cl	inactive: 5.46%	
COC(=O)C1=C(C)OC(N)=C(C#N)C1c1c(C)nn(C)c1C (stereo not given)		inconclusive [inhibitor, single point]
CCn1c(C)c(C2=CCN(S(=O)(=O)c3ccc(C)cc3)CC2)c2ccccc21		inconclusive [inhibitor, partial curve]
O=C(Nc1ccc(F)cc1F)c1noc2c1CCC2		inconclusive [inhibitor, partial curve]
CCSC1(SCC)N=C(N)C2(C#N)C(c3ccccc3)NC3=C(CCC3)C12C#N (stereo not given)		inconclusive [inhibitor, partial curve]
COc1cccc(CNCCCSc2nnnn2C)c1		inconclusive [inhibitor, single point]
CC(=O)Nc1ccc(S(=O)(=O)NCC(CCC(=O)O)C(F)(F)F)cc1 (stereo not given)		inconclusive [inhibitor, single point]
CCC(C(=O)NC1CCCC1)N(C(=O)Cn1nnc(-c2ccc(C)o2)n1)c1cnc2ccccc2c1 (stereo not given)		inconclusive [inhibitor, partial curve]
COc1ccc(-c2nc(CSCC(=O)N3CCN(c4cccc(C)c4)C(C)C3)c(C)o2)cc1OC (stereo not given)		active: 44.7 µM
COC(=O)c1c(C)sc(-c2c(-c3ccc(F)cc3)[nH]c3[nH]c(=O)[nH]c(=O)c23)c1O		inconclusive [inhibitor, single point]
S=C1NC2=C(C(c3ccc(Br)cc3)N1)N1CCC2CC1 (stereo not given)		inconclusive [inhibitor, full curve, poor fit]
CC(=O)Oc1ccc(N(C(C)=O)S(=O)(=O)c2cccs2)c2ccccc12		inconclusive [inhibitor, partial curve]
CCCCN(CCCNC(=O)c1ccc(CS(=O)(=O)c2ccc(OC)cc2)o1)Cc1ccccc1		inconclusive [inhibitor, single point]
COc1ccc(/C=C2\CCCC(C(=O)C(F)(F)F)=C2O)cc1OC		active: 31.6 µM
COc1ccc(-c2nnc(NC(=O)c3cc(Cl)ccc3Cl)o2)cc1		inconclusive [inhibitor, single point]
COc1ccccc1S(=O)(=O)Cc1ccc(C(=O)N2CCOCC2)o1		inconclusive [inhibitor, partial curve]
CCC1(C)Cc2c(sc3[nH]c(=O)[nH]c(=O)c23)CS1 (stereo not given)		inconclusive [inhibitor, partial curve, poor fit]
Cc1ccc(S(=O)(=O)Nc2ccc(=O)n(Cc3ccc(Cl)c(Cl)c3)c2)cc1		active: 39.8 µM
CN(C)S(=O)(=O)c1cc(NC(=O)CN2CCCc3ccccc32)ccc1Cl		inconclusive [inhibitor, partial curve]

SMILES	activity change, negative = inhibition	Potency
O=C(CN1CCN(C(=O)CNC(=O)c2ccc3c(c2)OCO3)CC1)Nc1cccc(F)c1		inconclusive [inhibitor, single point]
O=C1CN(C(=O)c2ccc(S(=O)(=O)N3CCCC3)cc2)C(c2ccc(F)cc2)c2cc(F)ccc2N1 (stereo not given)	inactive: 1.49%	
CCOC(=O)C1CN(S(=O)(=O)c2ccc(F)cc2)C1		inconclusive [inhibitor, single point]
NC(=O)C1=C[C@@H](c2ccc(C(F)(F)F)cc2)C[C@@H](OCCCCO)O1		inconclusive [inhibitor, partial curve, poor fit]
CCOc1ccc(N(CC(=O)Nc2ccc3c(c2)OCO3)S(=O)(=O)c2ccccc2)cc1	inactive: -1.71%	
Cn1nc2sc3ccccc3n2c(=O)c1=O	inactive: 14.9%	
Cc1ccc(NC(=O)N/C=C/c2ccco2)cc1		inconclusive [inhibitor, partial curve]
C/C(CC(=O)NC1CCCC1)=N\NC(=O)Cc1cccs1	inactive: -12.1%	
O=C(Nc1nnc(C2CC2)s1)C1CCCCC1		inconclusive [inhibitor, full curve]
COc1ccc(/C=C/C(=O)NCC(=O)N/N=C/c2cccs2)cc1	inactive: -2.97%	
O=S(=O)(Nc1cc(F)ccc1F)c1cccc2nonc12		inconclusive [inhibitor, full curve, poor fit]
Cc1nc2cc(-c3ccccc3)nn2c(C)c1CCC(=O)NCc1cccc(Cl)c1	inactive: -3.64%	
O=C(Nc1ccc2nc(SCCOc3ccccc3)sc2c1)c1ccc2c(c1)OCO2		inconclusive [inhibitor, full curve, poor fit]
Cc1cc(NC(=O)CC(C)C)c(=O)n(Cc2ccccc2F)c1		inconclusive [inhibitor, partial curve]
Oc1ccc2ccccc2c1/C=N/c1nc2c(s1)CCCC2		inconclusive [inhibitor, partial curve]
O=C(Nc1cccc(C(=O)O)c1)/C(=C\c1ccc2c(c1)OCO2)NC(=O)c1ccccc1Cl	inactive: 1.61%	
COc1ccc(C(=O)c2sc(Nc3cc(Cl)ccc3C)nc2N)cc1OC	inactive: 4.06%	
O=C(NC1CCCCCC1)C1Cc2ccccc2CN1C(=O)c1ccco1 (stereo not given)		inconclusive [inhibitor, partial curve]
O=S(=O)(c1cccc(-c2cn3cccnc3n2)c1)N1CCCCCC1	inactive: 0%	
NC(=O)C1=C[C@H](C2CCCCC2)C[C@H](OCc2ccc(CO)cc2)O1	inactive: -3.24%	
Cc1ccc(C)c(CN2CCCNC2=O)c1		inconclusive [inhibitor, single point]
O=C1CC(N2CCN(c3ccc(Cl)cc3)CC2)C(=O)N1c1ccc(F)cc1 (stereo not given)		inconclusive [inhibitor, partial curve]
